Data from PubChem BioAssay AID463173 (ICCB-Longwood Screening Facility, Harvard Medical School, 2010).
About 4,300 (8.3%) of roughly 52,000 compounds were called active. Rule as the data show it: active = survival mostly below about 52% (no sharp cut-off); inactive = mostly above about 56%. The list shows a part of the results.

What follows are compounds tested on DeltatarO mutant (assay: S. aureus survival, RN4220 and DeltatarO strains – OD600, teichoic acid synthesis inhibitors, primary screen (AID 463173)). Conditions: S. aureus RN4220 wild type/DeltatarO growth, OD600, 18 h, hits give low values, screened at 18.75 µg/mL (by protocol).

| SMILES | survival |
| --- | --- |
| Cc1ccc(CN(C(=O)COc2ccccc2[N+](=O)[O-])c2ccccn2)cc1 | inactive: 46% |
| COc1ccc(C)cc1NC(=O)Nc1cc(C(=O)NCc2ccc(C)cc2)ccc1N1CCCC1 | inactive: 82% |
| COc1ccc(-c2nc3sc(CCNC(=O)Cc4ccc(F)cc4)c(C)n3n2)cc1 | inactive: 94% |
| Cc1sc(-c2cc3ccccc3oc2=O)nc1-c1ccc(Cl)c(Cl)c1 | inactive: 115% |
| CCOc1ccc(CNCc2c(C(=O)O)c(C)n(Cc3ccc(C)cc3)c2C)cc1 | inactive: 80% |
| Cc1nnc(N2CCCC(C(=O)NCCN(C)C)C2)c2nn(-c3ccccc3)c(C)c12 (stereo not drawn) | inactive: 88% |
| CCOc1ccccc1OCCCCn1c(-c2ccc(Cl)cc2)nc2ccccc2c1=O | inactive: 45% |
| COc1ccc(N2CCN(C(=O)C3CCN(S(=O)(=O)c4cccc5nonc45)CC3)CC2)cc1 | inactive: 115% |
| CCN1CCN(CCCNC(=O)CS(=O)(=O)Cc2nc(-c3ccccc3C)oc2C)CC1 | inactive: 78% |
| Cc1cc(C)cc(NC(=O)c2ccc3oc(=O)c(S(=O)(=O)c4ccc(F)cc4)cc3c2)c1 | inactive: 90% |
| COc1ccc(NC(=O)Cn2c(=O)c3cccn3c3ccccc32)cc1Cl | active: 42% |
| COc1cccc2sc(NC(=O)c3ccc(S(=O)(=O)N4CCC(C)CC4)cc3)nc12 | inactive: 95% |
| CCOC(=O)c1noc2ncnc(Nc3cc(Cl)c(OC)cc3OC)c12 | inactive: 99% |
| CC(C)c1ccc(-c2noc(SCC(=O)N3CCCCC3C)n2)cc1 (stereo not drawn) | inactive: 87% |
| Cc1cc(=O)n(Cc2ccc(F)cc2Cl)c2c1c(C)nn2C | inactive: 60% |
| O=C(NCCCN1CCN(c2ccc(F)cc2)CC1)c1cc2c(Cl)nc3ccccc3c2s1 | inactive: 91% |
| Cc1cccc(-c2nc(CCNC(=O)c3ccc(Br)o3)cs2)c1 | inactive: 89% |
| CCc1ccccc1Nc1ccc(C(=O)O)cn1 | inactive: 93% |
| CCC(Sc1nc(-c2ccccc2)[nH]c1S(=O)(=O)c1ccc(C)cc1)C(=O)O (stereo not drawn) | inactive: 80% |
| CC1CCC(N2CC(=O)N(CCC3=CCCCC3)C(c3ccc(F)cc3)C2=O)CC1 (stereo not drawn) | inactive: 83% |
| COc1ccc(OC)c(NC(=O)c2cnc(Nc3ccc(C)c(Cl)c3)c3ccccc23)c1 | active: 44% |
| CCOc1ccc(NC(=O)c2c(NCc3cccnc3)sc3c2CCC(C)C3)cc1 (stereo not drawn) | inactive: 125% |

| SMILES | survival |
| --- | --- |
| CC(=O)c1sc(NC(=O)c2c(-c3ccccc3)c(-c3ccccc3)nn(C)c2=O)nc1C | inactive: 47% |
| CCN1CCN(C(=O)c2cnn(-c3ccc(F)cc3F)c2C2CCN(C(=O)OC(C)(C)C)CC2)CC1 | inactive: 86% |
| CCN(CC)C(=O)Cn1c(=O)n(-c2ccc(C)c(C)c2)c(=O)c2c(C)c(C(=O)N(CC)CC)sc21 | inactive: 95% |
| CCCCCN1C(C(=O)c2ccccc2)=C(NC(=O)c2ccc(C)cc2)c2ccccc2S1(=O)=O | inactive: 74% |
| CC1CCc2onc(C(=O)N3CCN(c4ccc(F)cc4)CC3)c2C1 (stereo not drawn) | inactive: 74% |
| CCOc1ccc(NC(=O)CCNS(=O)(=O)c2ccc3c(c2)CCCC(=O)N3)cc1 | inactive: 66% |
| COc1cc(Cl)c(NC(=O)CCc2nc3cccnc3n2-c2ccccc2)c(OC)c1 | inactive: 80% |
| Cn1c(CO)nc2cc(N)ccc21 | inactive: 100% |
| CC1=C(C(=O)Nc2ccc(Cl)cc2)C(c2cccs2)n2nc(SCc3cccc(C)c3)nc2N1 (stereo not drawn) | inactive: 88% |
| O=C(CSc1nc2cc3ccccc3cc2[nH]1)Nc1ccc(F)cc1 | inactive: 62% |
| O=C(NCCc1nc2ccccc2n1Cc1c(F)cccc1Cl)c1ccco1 | inactive: 70% |
| CC(C)(C)OC(=O)N1CCC(c2c(C(=O)N3CCN(c4ccccc4F)CC3)cnn2-c2ccccc2Cl)CC1 | inactive: 78% |
| Cc1ccc(NC(=O)c2cnc(SCC(=O)N3CCCc4ccccc43)n(C)c2=O)cc1 | inactive: 74% |
| COc1cccc(N2C(=O)C(CC(=O)Nc3ccccc3)N(CCc3sccc3C)C2=O)c1 (stereo not drawn) | inactive: 64% |
| CCc1ccccc1NC(=O)CN1C(=O)C2CCCN2c2ccc(S(=O)(=O)N(CC)CC)cc21 (stereo not drawn) | inactive: 72% |
| Cc1ccc2oc(-c3cc(N=C/C=C/c4ccc5c(c4)OCO5)ccc3O)nc2c1 | inactive: 83% |
| Cc1cccc(NC(=O)C2CCCN(S(=O)(=O)c3ccc4c(c3)oc(=O)n4C)C2)c1C (stereo not drawn) | inactive: 83% |
| COC(=O)c1c(NC(=O)COc2ccc(C)cc2Br)sc2c1CCCC2 | inactive: 61% |
| Cc1ccc(CNC(=O)CN(C)S(=O)(=O)c2ccc3c(c2)c(=O)n(C)c(=O)n3C)cc1 | inactive: 78% |
| CCOc1ccc(N(C)S(=O)(=O)c2cc(-c3cc(C)no3)ccc2OC)cc1 | inactive: 81% |
| CCS(=O)(=O)N1CC(=O)N(c2ccc(Cl)cc2C)C(C)(C(=O)NC2CCCCC2)C1 (stereo not drawn) | inactive: 86% |
| O=C(NCCc1ccc(F)cc1)C(=O)NCC(c1cccs1)S(=O)(=O)c1ccc(Cl)cc1 (stereo not drawn) | inactive: 74% |

| SMILES | survival |
| --- | --- |
| O=C(CSc1nnc(-c2ccccc2)c(-c2ccccc2)n1)NCCc1ccccc1 | inactive: 83% |
| COc1ccc(C(=O)Nc2ccccc2C(=O)Nc2ccccn2)cc1 | inactive: 94% |
| CCn1c(=O)c2cc(C(=O)NCc3ccc(F)cc3Cl)sc2c2ccccc21 | inactive: 95% |
| Cc1ccc(C)c(N(C)C(=O)c2cc3c(s2)-c2ccccc2OC3)c1 | active: -3% |
| Cc1cc(C)c(OCC(=O)N(Cc2ccc(N(C)C)cc2)CC2CCCO2)c(C)c1 (stereo not drawn) | inactive: 57% |
| Cc1c(CNC2CCC(C)CC2)c(C(=O)O)c(C)n1Cc1ccc(Cl)cc1 (stereo not drawn) | inactive: 83% |
| CCOC(=O)C(CC)Sc1ncnc2c1c(-c1ccccc1)cn2-c1ccc(OC)cc1 (stereo not drawn) | inactive: 58% |
| CCN(CC)c1ccc(NS(=O)(=O)c2cc(-c3onc(C)c3C)ccc2OC)c(C)c1 | inactive: 78% |
| CC1CC2(C)CC(C)C1(COC(=O)Nc1ccccc1)CO2 (stereo not drawn) | inactive: 89% |
| Cc1ccc2c(=O)cc(C(=O)Nc3ccc(S(=O)(=O)N4CCCCC4C)cc3)oc2c1C (stereo not drawn) | inactive: 79% |
| CC(=O)Nc1cc(C(=O)NCc2ccc(F)cc2)ccc1S(=O)(=O)c1ccc(C)cc1 | inactive: 78% |
| COc1ccc(NC(=O)c2cn3ccc(C)cc3n2)cc1 | inactive: 50% |
| COc1cccc(-c2nnc(SCC(=O)N(C)c3ccccc3)o2)c1 | inactive: 91% |
| CC(=O)c1ccc(NC(=O)C(C)n2nc(-c3ccccc3)ccc2=O)cc1 (stereo not drawn) | active: 32% |
| CCOC(=O)c1ccc(NC(=O)CC2C(=O)N(c3cccc(OC)c3)C(=O)N2Cc2cccnc2)cc1 (stereo not drawn) | inactive: 103% |
| CCn1c2ccccc2c2cc(CN3CCN(Cc4ccc(Cl)cc4)CC3)ccc21 | active: -1% |
| Cc1cc(C)nc(/N=C2\NC(=O)CC3C(=O)NCCN23)n1 (stereo not drawn) | inactive: 100% |
| CCc1cccc(C)c1NC(=O)CCCn1c(C)c2cnn(-c3ccccc3)c(=O)c2c1C | inactive: 65% |
| CCCN(C(=O)Cc1nc(-c2ccc(OC)cc2)no1)c1ccccc1C | inactive: 85% |
| CCC(C)NC(=O)Cn1c(=O)n(CCCCCC(=O)Nc2ccccc2)c(=O)c2sccc21 (stereo not drawn) | inactive: 102% |
| CCCCOC(=O)c1ccc(OC(=O)c2sc3ncn(Cc4cccc(F)c4)c(=O)c3c2C)cc1 | inactive: 80% |
| CCOC(=O)c1[nH]c(C)c(CCC(=O)Nc2ccccc2OCC)c1C | inactive: 75% |

| SMILES | survival |
| --- | --- |
| CN1C(=O)CC(C(=O)Nc2ccc(C(=O)O)cc2)SC1=Nc1ccc(Cl)cc1 (stereo not drawn) | inactive: 67% |
| CNc1nc2c(c(=O)[nH]c(=O)n2C)n1Cc1cccc2ccccc12 | inactive: 85% |
| Cn1c(=O)c2c(nc(NCCCCO)n2Cc2ccccc2Cl)n(C)c1=O | inactive: 63% |
| COc1ccc(C(=O)Nc2nnc(SCc3cc(=O)c4cccc(F)c4[nH]3)s2)cc1 | inactive: 89% |
| COc1ccc2c(C)c(CCC(=O)NCCc3ccc(OC)c(OC)c3)c(=O)oc2c1 | inactive: 88% |
| CN(C)CC(O)COc1ccc2ccccc2c1 (stereo not drawn) | inactive: 104% |
| Cc1ccnc(N2CCC(C(=O)NCc3ccc(F)cc3)CC2)n1 | inactive: 86% |
| CCOc1ccc(-c2nn(-c3ccc(F)cc3)c3c2cnc2ccc(F)cc23)cc1 | inactive: 81% |
| Cc1ccc2oc(-c3ccc(Cl)cc3)c(O)c(=O)c2c1 | inactive: 72% |
| Cc1cc(O)c(C(c2ccccc2)N2CCN(c3ccccc3)CC2)c(=O)n1Cc1ccco1 (stereo not drawn) | inactive: 71% |
| O=C(NC1CC2CCCC(C1)N2C(=O)Nc1ccccc1)C1CC1 (stereo not drawn) | inactive: 61% |
| Cc1cccc(C)c1NC(=O)Cn1cc(C(=O)c2ccco2)c2ccccc21 | inactive: 63% |
| O=C(Cn1ncc2c3ccccc3n(Cc3cccc(Cl)c3)c2c1=O)NCCCc1ccccc1 | inactive: 93% |
| COc1ccc(-c2c(C)nn3c(-c4ccccc4)cc(C)nc23)cc1OC | active: 38% |
| CCc1nc(Nc2ccc(F)c(Cl)c2)c2c3c(sc2n1)CCCC3 | active: -4% |
| COC(=O)c1cc2c(cc1NC(=O)c1cnn(-c3ccccc3)c1-n1cccc1)OCO2 | inactive: 83% |
| CSc1nc(Nc2ccc(C)cc2C)cc(-c2ccccc2)n1 | inactive: 51% |
| CCOC(=O)CNC(=O)CSc1cn(CC(=O)N2CCCCCC2)c2ccccc12 | inactive: 92% |
| CN(Cc1ccccc1)C(=O)C1CCN(S(=O)(=O)c2ccc3c(c2)oc(=O)n3C)CC1 | inactive: 94% |
| Cc1cccc(C(=O)Nc2nnc(S(=O)(=O)N(C)Cc3ccc(Cl)cc3)s2)c1 | inactive: 95% |
| CCCCCNC(=O)c1ccc2c(c1)ncn2-c1cccc(C)c1 | active: 0% |
| O=C1COc2ccc(-c3cc(-c4ccc(Cl)cc4)c4c(n3)-c3ccccc3OC4)cc2N1 | inactive: 136% |
